# Laboratory results as given in PubChem BioAssay AID924 (National Center for Advancing Translational Sciences (NCATS), 2007).
# Out of some 130,000 compounds screened, about 1,200 (0.92%) were called active. The inconclusive results got no clear call from the source; some entries with a clear call stand among them for comparison. Calls come from the whole dose curve; as a rule, active = well fitted cell-killing curve with a large enough effect; inconclusive = small, poorly fitted or top-dose-only effect; inactive = no such curve, though single readings can be large or run the other way. Where the call is inconclusive, the potency comes from a doubtful curve fit.
# Assay: qHTS Screen for Compounds that Selectively Target Cancer Cells with p53 Mutations: Cytotoxicity of p53ts Cells at the Permissive Temperature; note: nearly all actives have a fitted effect of over 55% in size;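 for activity change, negative = cytotoxicity: 0% = DMSO and -100% = full killing by reference compound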
# Settings: H1299-p53A138V at 32C, ATP luminescence viability, 24 h; activity change, negative = cytotoxicity: at 46.1 µM (top of the series)
# How it was run: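 Cells: H1299 p53ts (A138V), 600/well, pre-incubated 16–30 h at 37C. Cpd up to 46 uM, 24 h, 32C. Readout: ATPlite luminescence, 20 min RT. Normalization: DMSO vs tamoxifen 100 uM. AC50 by Hill equation.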
# Potency is the fitted concentration of half-maximal effect; tags give direction and shape of the fitted curve.
Structure (SMILES),"activity change, negative = cytotoxicity",Potency
CC(C)(C)OC(=O)N1CCC(c2c(C(=O)NC3CCN(Cc4ccccc4)CC3)cnn2-c2cccc(F)c2)CC1,inactive: 4.92%,–
CC(=O)Nc1ccc(NC(=O)CCCc2nc(-c3ccc(C(C)(C)C)cc3)no2)cc1,–,"inconclusive: 12.6 µM [cytotoxic, partial curve]"
COc1ccccc1Nc1nn2c(=O)c3ccc(C(=O)N4CCC(C)CC4)cc3nc2s1,–,"inconclusive: 31.6 µM [cytotoxic, single point]"
COc1ccc(S(=O)(=O)Nc2cccc(-c3ccc(N4CCOCC4)nn3)c2)cc1F,–,"inconclusive: 12.6 µM [cytotoxic, partial curve]"
Cc1ccc(Nc2nnc(SCC(=O)NCCN3C(=O)CSC3=O)s2)cc1,–,"inconclusive: 1.12 µM [cytotoxic, partial curve, poor fit]"
O=C1C2CCCN2C(c2ccccc2F)N1c1ccc(Cl)cc1 (stereo unspecified),inactive: -0.488%,–
CCCS(=O)(=O)c1ncc(Cl)c(C(=O)N2CCN(c3ccc(OC)cc3)CC2)n1,–,"inconclusive: 20 µM [cytotoxic, single point]"
CC(=O)NCCNc1nc(-c2ccc(N(C)C)cc2)nc2ccccc12,–,"inconclusive: 12.6 µM [cytotoxic, partial curve]"
COc1ccccc1NC(=O)CSc1nnc2c3ccccc3n(C(C)C)c2n1,inactive: -8.9%,–
CCC(CC)C(=O)Nc1ccc(-c2cn3cccnc3n2)cc1,–,"inconclusive: 10 µM [cytotoxic, partial curve]"
CNc1nnc(-c2ccc(N(C)C)cc2)s1,–,active: 6.31 µM
CN(C)c1ccc(-c2nc(N3CCNCC3)c3ccccc3n2)cc1,–,active: 12.6 µM
COC(=O)Cc1c(C)nc2nc(-c3ccc(OC)cc3)[nH]n2c1=O,–,"inconclusive: 10 µM [cytotoxic, partial curve]"
Clc1ncnc2scc(C3COc4ccccc4O3)c12 (stereo unspecified),–,"inconclusive: 22.4 µM [cytotoxic, partial curve, poor fit]"
C=CCn1cnc2c(c1=O)c1nc3ccccc3nc1n2/N=C/c1cccc(OC)c1OC,inactive: -0.736%,–
O=C(O)CCCNc1cc(N2CCC3(CC2)OCCO3)c2noc3c2c1C(=O)c1ccccc1-3,–,"inconclusive: 25.1 µM [cytotoxic, single point]"
Cc1ccc(-c2csc(/C(C#N)=C/c3ccccc3Cl)n2)cc1,inactive: -4.14%,–
O=C(NCC1OCCc2ccccc21)c1ccc(NC(=O)c2ccc(Cl)cc2)cc1 (stereo unspecified),inactive: 5.49%,–
COc1cccc(-n2ccnc2SCC(=O)N2CCc3ccccc32)c1,–,"inconclusive: 0.398 µM [cytotoxic, full curve, poor fit]"
COc1ccc(C(=O)NCC(c2cccnc2)N2CCc3ccccc3C2)cc1OC (stereo unspecified),–,"inconclusive: 20 µM [cytotoxic, partial curve]"
Cc1c(C(=O)c2no[n+]([O-])c2C(=O)c2cnn(C)c2C)cnn1C,–,"inconclusive: 31.6 µM [cytotoxic, single point]"
COc1ccc(NC(=O)c2csc3c2CCCCC3)cc1,–,"inconclusive: 12.6 µM [cytotoxic, single point]"
COc1cc(/C=C/C(=O)N2CCCCC2=O)cc(OC)c1OC,–,active: 12.6 µM
CCN(CC)c1cc(C)c2cc(NC(=O)c3cccc(F)c3)ccc2n1,inactive: -18.2%,–

Structure (SMILES),"activity change, negative = cytotoxicity",Potency
O=c1cc(-c2cccc(O)c2)oc2ccc(O)cc12,–,"inconclusive: 3.16 µM [cytotoxic, partial curve]"
CC(C)Oc1ccc2c(=O)cc(-c3ccccc3)oc2c1,–,"inconclusive: 10 µM [cytotoxic, partial curve]"
c1ccc(-n2ncc3c2ncn2nc(-c4ccco4)nc32)cc1,–,"inconclusive: 12.6 µM [cytotoxic, partial curve]"
Cn1c2ccccc2c2ncn(CCCN3CCOCC3)c(=O)c21,inactive: -0.284%,–
CC(C)CS(=O)(=O)c1oc(-c2ccc(F)cc2)nc1S(=O)(=O)c1ccccc1,–,active: 10 µM
O=C(COc1ccc(Cl)cc1)OCc1cc(=O)n2nc(-c3cccs3)sc2n1,inactive: 0.383%,–
CCc1cc2c(N3CCN(c4ccccc4)CC3)ncnc2s1,–,"inconclusive: 31.6 µM [cytotoxic, single point]"
Clc1cccc(-c2nnc(-c3ccccc3)o2)c1,–,active: 10 µM
CN(C)[C@H]1C(=O)C(C(=O)NCN2CCCC2)=C(O)[C@]2(O)C(=O)C3=C(O)c4c(O)cccc4[C@](C)(O)[C@H]3C[C@H]12,inactive: 4.46% [at 9.22 µM],–
C=C(C)C(=O)OCCCCCC,inactive: 2.58% [at 1.84 µM],–
COc1ccc2[nH]cc(CCNc3nc(-c4ccc(C(=O)N(C)C)cc4)nc4ccccc34)c2c1,–,"inconclusive: 15.8 µM [cytotoxic, single point]"
NC[C@H](O)C1CCCCCCC1,–,"inconclusive: 10 µM [cytotoxic, partial curve]"
COc1ccccc1CNC(=O)Cc1c(C)c2c(cc(C)c3c(C)coc32)oc1=O,inactive: 11.2%,–
N#Cc1ccc(-c2cccs2)nc1SCc1c(F)cccc1Cl,–,"inconclusive: 15.8 µM [cytotoxic, single point]"
COc1ccccc1-c1cc(Nc2ccn[nH]2)ncn1,–,"inconclusive: 10 µM [cytotoxic, partial curve]"
COc1ccc(Nc2c3c(nc4ccc(NC(=O)/C=C/c5cc(OC)c(OC)c(OC)c5)cc24)CCCC3)cc1OC,–,active: 12.6 µM
CC(=O)OC[C@@H]1O[C@H](C/C=N\O[C@@H](C)c2cc(-c3c(C)cc(C)cc3C)no2)C=C[C@@H]1OC(C)=O,inactive: 6.08% [at 9.22 µM],–
Cc1cccc(OCCCCn2c(C3CC(=O)N(c4ccccc4Cl)C3)nc3ccccc32)c1 (stereo unspecified),–,"inconclusive: 31.6 µM [cytotoxic, single point]"
O=S(=O)(C/C(=C/CO)S(=O)(=O)c1ccccc1)c1ccccc1,–,"inconclusive: 25.1 µM [cytotoxic, single point]"
Cc1ccc(-n2c(=O)c3c(c4cc(C)ccc4n3C)n(CC(=O)Nc3c(C)cccc3C)c2=O)cc1,inactive: 0.93%,–
O=C(c1cccs1)c1no[n+]([O-])c1C(=O)c1cccs1,–,"inconclusive: 31.6 µM [cytotoxic, single point]"
COc1cc(NC(=O)C(C)C)ccc1NC(=O)c1ccco1,–,"inconclusive: 10 µM [cytotoxic, partial curve]"
Cn1c(C(=O)NCc2cccs2)cc2oc3ccccc3c21,–,"inconclusive: 3.16 µM [cytotoxic, full curve]"
CCc1nnc(NC(=O)CCC(=O)NC2CCCCC2)s1,inactive: 4.6%,–

Structure (SMILES),"activity change, negative = cytotoxicity",Potency
COc1ccc(-c2nc3cc(NC(=O)Cc4ccc(Cl)cc4)ccc3o2)cc1OC,–,active: 10 µM
CCS(=O)(=O)Nc1ccc(C(=O)c2ccccc2)cc1,inactive: -4.52%,–
COc1cc(OC)c(-c2cc(C(=O)NCc3ccc(F)cc3)c3c(-c4ccccc4)[nH]nc3n2)cc1OC,–,active: 8.91 µM
Cc1noc(NS(=O)(=O)c2ccc(N/C=C/C(=O)c3ccc4c(c3)OCO4)cc2)c1C,–,"inconclusive: 12.6 µM [cytotoxic, partial curve]"
O=C(CSc1c2c(nc3ccccc13)CCC2)Nc1ccc(F)cc1,–,"inconclusive: 12.6 µM [cytotoxic, single point]"
O=C1c2ccccc2C(=O)N1c1cccc(-c2csc(Nc3ccc4c(c3)OCO4)n2)c1,–,"inconclusive: 15.8 µM [cytotoxic, partial curve]"
Cc1ccc(C2CC2C(=O)NNC(=S)Nc2ccc(Cl)cc2)cc1 (stereo unspecified),–,"inconclusive: 11.2 µM [cytotoxic, partial curve]"
C/C(=C\C(=O)c1ccccc1)Nc1cccc(O)c1,–,active: 10 µM
O=C(Nc1ccc2c(c1)CCCN2C(=O)c1cccs1)c1ccccc1,–,"inconclusive: 25.1 µM [cytotoxic, single point]"
COc1cccc(C=NC=Nc2cccc(OC)c2)c1,inactive: -23.5%,–
Cc1cc(C)nc(SCc2nnc(SCC(=O)Nc3ccc(C)c(C)c3)n2Cc2ccco2)n1,inactive: 13.2%,–
O=C(Nc1cccc(C(F)(F)F)c1)c1cc(-c2ccc3c(c2)OCCO3)on1,–,"inconclusive: 7.94 µM [cytotoxic, partial curve]"
CC(C)c1ccc(NS(=O)(=O)c2ccc3nc(-c4ccccc4)[nH]c3c2)cc1,–,"inconclusive: 25.1 µM [cytotoxic, single point]"
CC(C)C(=O)Nc1ccc(NC(=O)c2ccccc2Cl)nc1,–,"inconclusive: 10 µM [cytotoxic, partial curve]"
C/C(=N\NC(=O)COc1ccc(C(C)(C)C)cc1)c1ccc(OC(F)F)cc1,–,"inconclusive: 0.0891 µM [cytotoxic, full curve, poor fit]"
COCC(=O)N1CCC2(CC1)CCN(c1ccc(-c3ccccc3)cc1)CC2,–,"inconclusive: 7.94 µM [cytotoxic, partial curve]"
Cc1cccn2c(=O)c(C(=O)N3CCN(c4ccccc4F)CC3)cnc12,inactive: 4.07%,–
OC(CNCC1CCCO1)Cn1c2ccc(Br)cc2c2cc(Br)ccc21 (stereo unspecified),–,"inconclusive: 25.1 µM [cytotoxic, single point]"
CC1=C(c2ccc(C(C)C)cc2)S(=O)(=O)N=C1N1CCN(c2ccccc2F)CC1,–,"inconclusive: 12.6 µM [cytotoxic, partial curve]"
O=C(Cc1cc(=O)[nH]c(=O)[nH]1)NCCN1CCOCC1,–,active: 12.6 µM
Cc1cc(=O)[nH]c(S/C=C/c2ccccc2)n1,–,active: 6.31 µM
COc1cccc(-c2nc(-c3ccc(Br)o3)no2)c1,–,"inconclusive: 15.8 µM [cytotoxic, single point]"
CCOc1ccccc1NC(=O)CSc1c2c(nc3ccc(Cl)cc13)CCCC2,–,"inconclusive: 31.6 µM [cytotoxic, single point]"
